How the values were obtained:
[1] = test system: gray mold fungi (Botrytis cinerea); test: Test Example B: tomato gray mold, spray treatment of tomato plants; settings: tomato gray mold, spray treatment
[2] = test system: barley powdery mildew fungi (Blumeria graminis f. sp. hordei); test: Test Example D: barley powdery mildew, spray treatment of barley plants; settings: barley powdery mildew, spray treatment
[3] = test system: wheat brown rust fungi (Puccinia recondita); test: Test Example E: wheat brown rust, spray treatment of wheat plants; type: in vivo; settings: wheat brown rust, spray treatment
[4] = test system: cabbage Alternaria sooty spot fungi (Alternaia brassicicola); test: Test Example C: cabbage Alternaria sooty spot, spray treatment of cabbage plants; type: in vivo; settings: cabbage Alternaria sooty spot, spray treatment
Source text: [Test Example C] Cabbage Alternaria Sooty Spot
Test plants (cabbage variety: Shikidori) were cultivated until the cotyledons extended after the sowing of seeds.
<Control Value> Control value=100{1−(n/3)}

[5] = test system: grape downy mildew fungus (Plasmopara viticola); test: Test Example G: grape downy mildew, spray treatment of grape plants; settings: grape downy mildew, 250 ppm spray, 7 to 10 days after inoculation

SMILES: Cc1ccc(F)cc1-n1cc(Br)c(=O)c(C)c1-c1ccccc1 [Compound 398]
- Test B control value [1]: L (L shows the control value of 50% or less)
- Test D control value [2]: L (L shows the control value of 50% or less)
- Test E control value [3]: H (H shows the control value of more than 50%)
- Test C control value [4]: L (L shows the control value of 50% or less)
- Test G control value [5]: L (L shows the control value of 50% or less)

SMILES: Cc1ccc(F)cc1-n1cc(Br)c(=O)c(Cl)c1-c1ccccc1 [Compound 399]
- Test B control value [1]: L (L shows the control value of 50% or less)
- Test D control value [2]: L (L shows the control value of 50% or less)
- Test E control value [3]: L (L shows the control value of 50% or less)
- Test C control value [4]: L (L shows the control value of 50% or less)
- Test G control value [5]: L (L shows the control value of 50% or less)

SMILES: COc1ccc(C)c(-n2cc(Br)c(=O)c(C)c2-c2ccccc2)c1 [Compound 400]
- Test B control value [1]: H (H shows the control value of more than 50%)
- Test D control value [2]: L (L shows the control value of 50% or less)
- Test E control value [3]: H (H shows the control value of more than 50%)
- Test C control value [4]: H (H shows the control value of more than 50%)
- Test G control value [5]: H (H shows the control value of more than 50%)

SMILES: COc1cc(F)c(-c2c(C)c(=O)c(C)cn2-c2cc(C)ccc2C)c(F)c1 [Compound 401]
- Test B control value [1]: H (H shows the control value of more than 50%)
- Test D control value [2]: H (H shows the control value of more than 50%)
- Test E control value [3]: H (H shows the control value of more than 50%)
- Test C control value [4]: H (H shows the control value of more than 50%)
- Test G control value [5]: H (H shows the control value of more than 50%)

SMILES: Cc1ccc(C)c(-n2cc(C)c(=O)c(C)c2-c2c(F)cccc2F)c1 [Compound 402]
- Test B control value [1]: H (H shows the control value of more than 50%)
- Test D control value [2]: L (L shows the control value of 50% or less)
- Test E control value [3]: H (H shows the control value of more than 50%)
- Test C control value [4]: L (L shows the control value of 50% or less)
- Test G control value [5]: L (L shows the control value of 50% or less)

SMILES: Cc1ccc(C)c(-n2cc(C)c(=O)c(C)c2-c2c(F)cc(O)cc2F)c1 [Compound 403]
- Test B control value [1]: H (H shows the control value of more than 50%)
- Test D control value [2]: L (L shows the control value of 50% or less)
- Test E control value [3]: H (H shows the control value of more than 50%)
- Test C control value [4]: H (H shows the control value of more than 50%)
- Test G control value [5]: L (L shows the control value of 50% or less)

SMILES: Cc1ccc(C)c(-n2cc(C)c(=O)c(C)c2-c2ccccc2)c1 [Compound 404]
- Test B control value [1]: H (H shows the control value of more than 50%)
- Test D control value [2]: L (L shows the control value of 50% or less)
- Test E control value [3]: H (H shows the control value of more than 50%)
- Test C control value [4]: L (L shows the control value of 50% or less)
- Test G control value [5]: H (H shows the control value of more than 50%)

SMILES: C#CCOc1cc(F)c(-c2c(C)c(=O)c(C)cn2-c2cc(C)ccc2C)c(F)c1 [Compound 406]
- Test B control value [1]: H (H shows the control value of more than 50%)
- Test D control value [2]: H (H shows the control value of more than 50%)
- Test E control value [3]: H (H shows the control value of more than 50%)
- Test C control value [4]: H (H shows the control value of more than 50%)
- Test G control value [5]: H (H shows the control value of more than 50%)

SMILES: CC(=O)Oc1cc(F)c(-c2c(C)c(=O)c(C)cn2-c2cc(C)ccc2C)c(F)c1 [Compound 407]
- Test B control value [1]: H (H shows the control value of more than 50%)
- Test D control value [2]: L (L shows the control value of 50% or less)
- Test E control value [3]: H (H shows the control value of more than 50%)
- Test C control value [4]: L (L shows the control value of 50% or less)
- Test G control value [5]: L (L shows the control value of 50% or less)

From patent US11000038B2, “Pyridone compounds and agricultural and horticultural fungicides containing the same as active ingredients” (priority 2017, dated 2021)
